Measurements published in US20200325225A1 (Hoffmann-La Roche, published 2020).

Assays:
murine FAP = target: T1, murine FAP (murine, UniProt P97321 27-761, limits assumed); test: SPR (Biacore T200, 25 C, HBS-EP), simultaneous binding; FAP-mu4-1BBL held on immobilized murine 4-1BB Fc(kih); murine FAP 500 nM as second analyte, 30 uL/min, 90 s, dissociation 120 s
T1 construct: also called mouse FAP; murine FAP (Analyte 2)

human FAP = target: T2, human FAP (human, UniProt Q12884 27-760, limits assumed); test: SPR (Biacore T200, 25 C, HBS-EP), simultaneous binding; FAP-mu4-1BBL held on immobilized murine 4-1BB Fc(kih); human FAP 500 nM as second analyte, 30 uL/min, 90 s, dissociation 120 s
T2 construct: also called Human FAP (Analyte 2)

B1: hybrid surrogate FAP-mu4-1BBL (Fc fusion)
heavy 1: RTEPRPALTITTSPNLGTRENNADQVTPVSHIGCPNTTQQGSPVFAKLLAKNQASLSNTTLNWHSQDGAGSSYLSQGLRYEEDKKELVVDSPGLYYVFLELKLSPTFTNTGHKVQGWVSLVLQAKPQVDDFDNLALTVELFPCSMENKLVDRSWSQLLLLKAGHRLSVGLRAYLHGAQDAYRDWELSYPNTTSFGLFLVKPDNPWEGGGGSGGGGSRTEPRPALTITTSPNLGTRENNADQVTPVSHIGCPNTTQQGSPVFAKLLAKNQASLSNTTLNWHSQDGAGSSYLSQGLRYEEDKKELVVDSPGLYYVFLELKLSPTFTNTGHKVQGWVSLVLQAKPQVDDFDNLALTVELFPCSMENKLVDRSWSQLLLLKAGHRLSVGLRAYLHGAQDAYRDWELSYPNTTSFGLFLVKPDNPWEGGGGSGGGGSRTVAAPSVFIFPPSDRKLKSGTASVVCLLNNFYPREAKVQWKVDNALQSGNSQESVTEQDSKDSTYSLSSTLTLSKADYEKHKVYACEVTHQGLSSPVTKSFNRGE[letters of human IgG1 Fc with changes left out]
chain: RTEPRPALTITTSPNLGTRENNADQVTPVSHIGCPNTTQQGSPVFAKLLAKNQASLSNTTLNWHSQDGAGSSYLSQGLRYEEDKKELVVDSPGLYYVFLELKLSPTFTNTGHKVQGWVSLVLQAKPQVDDFDNLALTVELFPCSMENKLVDRSWSQLLLLKAGHRLSVGLRAYLHGAQDAYRDWELSYPNTTSFGLFLVKPDNPWEGGGGSGGGGSASTKGPSVFPLAPSSKSTSGGTAALGCLVEDYFPEPVTVSWNSGALTSGVHTFPAVLQSSGLYSLSSVVTVPSSSLGTQTYICNVNHKPSNTKVDEKVEPKSC
heavy 2: EVQLLESGGGLVQPGGSLRLSCAASGFTFSSYAMSWVRQAPGKGLEWVSAIIGSGASTYYADSVKGRFTISRDNSKNTLYLQMNSLRAEDTAVYYCAKGWFGGFNYWGQGTLVTVSSASTKGPSVFPLAPSSKSTSGGTAALGCLVKDYFPEPVTVSWNSGALTSGVHTFPAVLQSSGLYSLSSVVTVPSSSLGTQTYICNVNHKPSNTKVDKKVEPKSCDKTHTCPPCPAPEAAGGPSVFLFPPKPKDTLMISRTPEVTCVVVDVSHEDPEVKFNWYVDGVEVHNAKTKPREEQYNSTYRVVSVLTVLHQDWLNGKEYKCKVSNKALGAPIEKTISKAKGQPREPQVCTLPPSRDELTKNQVSLSCAVKGFYPSDIAVEWESNGQPENNYKTTPPVLDSDGSFFLVSKLTVDKSRWQQGNVFSCSVMHEALHNHYTQKSLSLSPGK
light: EIVLTQSPGTLSLSPGERATLSCRASQSVTSSYLAWYQQKPGQAPRLLINVGSRRATGIPDRFSGSGSGTDFTLTISRLEPEDFAVYYCQQGIMLPPTFGQGTKVEIKRTVAAPSVFIFPPSDEQLKSGTASVVCLLNNFYPREAKVQWKVDNALQSGNSQESVTEQDSKDSTYSLSSTLTLSKADYEKHKVYACEVTHQGLSSPVTKSFNRGEC
notes: also called FAP-targeted mu4-1BBL construct
binding result (murine FAP): binds
binding result (human FAP): binds
